To fix the notation:
T1: UNK ZnF1-6 (called full-length) (human, UniProt Q9C0B0 30-357)
T1 sequence: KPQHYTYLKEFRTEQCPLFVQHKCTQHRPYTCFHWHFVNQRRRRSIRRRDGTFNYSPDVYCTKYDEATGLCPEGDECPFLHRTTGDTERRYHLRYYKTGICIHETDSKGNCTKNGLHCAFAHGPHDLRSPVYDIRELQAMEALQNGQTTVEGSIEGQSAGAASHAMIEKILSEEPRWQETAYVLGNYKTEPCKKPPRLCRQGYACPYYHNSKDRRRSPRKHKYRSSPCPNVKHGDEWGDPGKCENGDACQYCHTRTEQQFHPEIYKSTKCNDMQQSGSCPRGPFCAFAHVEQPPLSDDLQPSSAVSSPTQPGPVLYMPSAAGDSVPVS

B1: chr3:31657911:31664018:-|three_prime_utr|ENSG00000144645|control|control|control (ssRNA)
RNA: GGGAGUUCUACAGUCCGACGAUCGGGUUUUUCUUGCUGAGCCCCCAAGACUGGAUAAAUACCAGGCAGGGGAAGGGAUGGACUAGGGCAGCUCGGUUCUGACUCCAGCUUUGGACAAGGCUUCAGGACAGGUUUUCUGCCACACAACAGAGGAUUGAGCAUCA
B2: chr3:50341111:50341409:-|three_prime_utr|ENSG00000004838|control|control|control (ssRNA)
RNA: GGGAGUUCUACAGUCCGACGAUCCGAUCUCCCUCCUCCUCACCCCAAGUGAAGGCUCGAGACUUCCUGCCCCACCCAGUGGGUAGGCCAAGUGUGUUGCUUCAGCAAACCGGACCAGGAGGGCCAGGGCCGGAUGUGGGGACCCAACAGAGGAUUGAGCAUCA
B3: chr14:100278170:100278208:+|3pUTR|ENSG00000100811|msi1_unk|FALSE|overlapping (ssRNA)
RNA: GGGAGUUCUACAGUCCGACGAUCGCUAUCUUAAUUUUGGUUGUAUUCUUUGAUGUUAACACAUUUUGUAUAAUUGUAUCGUAUAGCUGUAUUGAAUCAUGUAGUAUCAAAUAUUAGAUGUGAUUUAAUAGUGUUAAUCAAUUUCAACAGAGGAUUGAGCAUCA
B4: chr2:200823707:200823808:+|3pUTR|ENSG00000082153|msi1|total|mutant (ssRNA)
RNA: GGGAGUUCUACAGUCCGACGAUCUGAGUAACUUUGAUAAAGUUUUUCAUGCACAGGCAAAAUGUAUUCACCCGAUUUCUACGCCGUGAUCUGCUUUUACUUUGUAAUUUGCCGUUCUCAAAAGACUUUUUUUUAAAAAAAUAACAACAGAGGAUUGAGCAUCA
B5: chr12:907890:907991:+|CDS|ENSG00000060237|msi1|FALSE|bound_elsewhere (ssRNA)
RNA: GGGAGUUCUACAGUCCGACGAUCGCCUCCUGCCAUGACGUCCAGCAGGAAGGGCACAUUCACAGAUGACUUGCACAAGUUGGUAGACAAUUGGGCCCGAGAUGCCAUGAAUCUCUCAGGCAGGAGAGGAAGCAAAGGGCACAUCAACAGAGGAUUGAGCAUCA
B6: chr12:123586815:123586897:+|5pUTR_CDS|ENSG00000086598|msi1_unk|FALSE|overlapping (ssRNA)
RNA: GGGAGUUCUACAGUCCGACGAUCGAAUCCAGUGGGAAAUACACAUUUGCUGCUCACAUGGAUGGAACAUACAAAUUUUGUUUUAGUAACCGGAUGUCCACCAUGACUCCAAAAAUAGUGAUGUUCACCAUUGAUAUUGGGGAGCAACAGAGGAUUGAGCAUCA
B7: chr17:4669773:4671531:-|three_prime_utr|ENSG00000141456|control|control|control (ssRNA)
RNA: GGGAGUUCUACAGUCCGACGAUCACUUCAUCGAUUGUCCCCCUGAUGAUGAGAAGCCACCACCUCCCACAGAGCCUGACUCCUAGCCAUCUUCUGCACCCCACUCUUUGUUUCCAAUAAAGUUAUGUCCUUAGAUAGCGACUGCAACAGAGGAUUGAGCAUCA
B8: chr5:122065063:122065164:-|3pUTR|ENSG00000113083|msi1|total|mutant (ssRNA)
RNA: GGGAGUUCUACAGUCCGACGAUCUCAACUGGCGGAUACCGCGGUACAUAUGAUCCUCCGCCACCAGGGCACAAGCUUACCAGCCGACAAUACAGACAGAGCUUUUGUUGAGCUGUAACUGAGCUAUGGAACCGCUUCUUUGAUCAACAGAGGAUUGAGCAUCA
B9: chr20:3649766:3649867:+|3pUTR|ENSG00000088812|unk|FALSE|bound_elsewhere (ssRNA)
RNA: GGGAGUUCUACAGUCCGACGAUCAAGUUCAAAGACUAACCUGUAGCAAUCAGACUUUCCAAAAGGGGGUUCUCCAUUUUUUGUAGUUUUGUCUAAAUUUUUAAUGACCAUUUCCUGGAAUCAGUUUAUUAUACUGAAAACUGGCAACAGAGGAUUGAGCAUCA
B10: chr11:113276847:113276948:+|3pUTR|ENSG00000149294|msi1|total|mutant (ssRNA)
RNA: GGGAGUUCUACAGUCCGACGAUCAGAAGGGAAAAGCCAGCCCUUUGUACCGAAAUUUUGCUUUUUUUUCCCUCAUUCUACUUCCGAACUGCAAGCUUGUGCACUGUGGAUGCGUGAAUAUUUCCGUGUGAAACGUGUUUUUGUCAACAGAGGAUUGAGCAUCA
B11: chr3:25596636:25596694:+|3pUTR|ENSG00000077092|msi1_unk|FALSE|overlapping (ssRNA)
RNA: GGGAGUUCUACAGUCCGACGAUCUCCCCAGUACCUUCAGUUCCAGGAUUUAAAAUGCAAGAAAAAACAUUUUUACUGCUGCUUAGUUUUUGGACUGAAAAGAUAUUAAAACUCAAGAAGGACCAAGAAGUUUUCAUAUGUAUCCAACAGAGGAUUGAGCAUCA
B12: ENSG00000149257:stop:overlap|stop_codon|ENSG00000149257|stop_codon|NA|stop_codon (ssRNA)
RNA: GGGAGUUCUACAGUCCGACGAUCCCCUGCUAUUCAUUGGGCGCCUGGUCCGGCCUAAGGGUGACAAGAUGCGAGACGAGUUAUAGGGCCUCAGGGUGCACACAGGAUGGCAGGAGGCAUCCAAAGGCUCCUGAGACACAUGGGCAACAGAGGAUUGAGCAUCA
B13: chr1:24839915:24840022:+|CDS|ENSG00000169504|unk|total|mutant (ssRNA)
RNA: GGGAGUUCUACAGUCCGACGAUCACCCUGCAGAAACUGGAUGAAUAUCUGAAUUCUCCUCUCCCUGAUGAAAUUGAUGAAAACCGUAUGGAGGACAUAAAGUUUUCUACACGUAAAUUUCUGGAUGGCAAUGAAAUGACAUUACAACAGAGGAUUGAGCAUCA
B14: chr11:36273890:36273991:-|3pUTR|ENSG00000110442|msi1|FALSE|unique (ssRNA)
RNA: GGGAGUUCUACAGUCCGACGAUCGGUGAAGAAGUGGGAAUAAUUGGAACUAAACAACAGUUCUAAAACUUCCAUGAUUUUUGUAGCUUCUUUUGUCCCCAAGUUGAAGCUUUUGGCCAGUACCUUCUCUAGUUUUUAAAGAUGCAACAGAGGAUUGAGCAUCA
B15: chr10:62095068:62095169:+|3pUTR|ENSG00000150347|msi1|FALSE|unique (ssRNA)
RNA: GGGAGUUCUACAGUCCGACGAUCCCAUUUGCUUCAAUUAAUUAUUUACCUUCCUGUGGAAUAAUAUAUAUAUAUAUAUUUAAUAGAACCAUAGAUAGACUAGUAGAAUUUAGAUUAUAAAUGUGUGAGUGCAGAUUAUCCUGCCAACAGAGGAUUGAGCAUCA
B16: chr20:54218986:54219149:+|CDS|ENSG00000101132|unk|total|mutant (ssRNA)
RNA: GGGAGUUCUACAGUCCGACGAUCAAAUUUGCAAGAAGAAAUUGACGCCUCCGAAUCCAGAGUGGAAUCAAUUCAGCGAGUGUCCGCAGAUUUGAAAGUUCAGUUGUAUGCAAAAUUCGGGAGCAACAUAAACCUUGAAGCUGACAACAGAGGAUUGAGCAUCA
B17: chr3:21421216:21421447:-|CDS|ENSG00000151789|control|control|control (ssRNA)
RNA: GGGAGUUCUACAGUCCGACGAUCAUUAGUAUUUUCAAAAGAACCUUCAAAGCCAUUGGCUCCACGAAUUCUACCAAAUCCUCUAGCAGCUGCAGCAGCCGCAGCAGCAGUGGCAGUGAGUUCCCCCUUCAGUCUUCGAACUGCCAACAGAGGAUUGAGCAUCA
B18: chr18:55223968:55224079:-|3pUTR|ENSG00000196628|unk|FALSE|unique (ssRNA)
RNA: GGGAGUUCUACAGUCCGACGAUCUAUAAAGCUUUGUUUGUCUAGUGCUCUUUUGCUAUAAAAUAGACUGUAGUACACCCUAGUAGGAAAAAAAAAAAACUAAAUUUAAAAAUAAAAAAUAUAUUUGGCUUAUUUUUCGCAGGACAACAGAGGAUUGAGCAUCA
B19: chr7:76302746:76302847:+|CDS|ENSG00000106211|unk|total|mutant (ssRNA)
RNA: GGGAGUUCUACAGUCCGACGAUCGUCCCCUUCUCGCUCCUGCGGGGCCCCAGCUGGGACCCCUUCCGCGACUGGUACCCGCACCGCCGCCUCUUCGACCAGGCCUUCGGGCUGCCCCGGCUGCCGGAGGAGUGGUCGCAGUGGCAACAGAGGAUUGAGCAUCA
B20: chr8:143803364:143803465:-|CDS|ENSG00000180900|msi1|total|mutant (ssRNA)
RNA: GGGAGUUCUACAGUCCGACGAUCACCCUCACCGUGCUGGUCUGUGACGGCUUUGAGGCCAGCACCGACGCAGCCCUGGAGGUCCGCGAUCCCGCCCCGGGGACCGGGCCUCCCUCUGGCCCAGCCCAAGGUGUUGUGAGCCGCCAACAGAGGAUUGAGCAUCA
B21: chr3:58425360:58425463:+|3pUTR|ENSG00000168297|unk|FALSE|unique (ssRNA)
RNA: GGGAGUUCUACAGUCCGACGAUCAGACAGCUCCUAGAAACAUUCCUCUUACAGUUCAUUUCUCUAAAGCAUUUUCUGAUUCUUAGAUAACUCCAAUUUUUGCUACCUUUAUCUUAGACAUUAACACUAUAGCCCAAAGCAUAGCAACAGAGGAUUGAGCAUCA
B22: ENSG00000198589:be:win_6551|CDS|ENSG00000198589|bound_else_gene|NA|bound_elsewhere_windowed (ssRNA)
RNA: GGGAGUUCUACAGUCCGACGAUCGACGUAUUUCAUUAGCUAGUCCACGUCAGCUUUUUAAGGCUUCUAAUAUGACCCAGCGAUGGCAACACAGAGAGAUAUCUAAUUUUGAGUACUUGAUGUUUCUCAACACGAUAGCAGGACCAACAGAGGAUUGAGCAUCA

Some of the results follow.

The assay addresses T1, UNK ZnF1-6 (called full-length). Description: nsRBNS (natural sequence RNA bind-n-seq); RBNS binding buffer (assumed for nsRBNS): 25 mM Tris pH 7.5, 150 mM KCl, 3 mM MgCl2, 0.01% Triton X-100, 500 ug/ml BSA, 20 U/ml SUPERase-In, 4 C; UNK is unkempt and MSI1 is Musashi-1; names of the RNAs are library labels; protein concentration not given here; high values mean tight binding.
B1 displayed a binding signal of 0.94 enrichment R.
In the case of B2 it was 0.749 enrichment R; in that of B3, 14.1 enrichment R.
In turn, B4 gave a binding signal of 0.553 enrichment R.
As for B5, the binding signal was found to be 0.752 enrichment R.
The result for B6 reads 0.492 enrichment R; that for B7, 1.21 enrichment R.
As for B8, the binding signal is 0.553 enrichment R.
B9 came in with a binding signal of 3.29 enrichment R.
For the molecule B10, the binding signal amounted to 0.264 enrichment R.
For the molecule B11, the binding signal was 0.303 enrichment R.
In the case of B12, the binding signal amounted to 0.668 enrichment R.
B13 had a binding signal of 0.262 enrichment R.
The result for B14 reads 1.43 enrichment R; that for B15, 15.6 enrichment R; that for B16, 0.411 enrichment R.
B17 had a binding signal of 3.04 enrichment R.
Take B18: the binding signal was determined as 39.5 enrichment R.
With B19, the binding signal amounted to 2.16 enrichment R.
As to B20, the binding signal turned out to be 0.387 enrichment R.
In the case of B21 it was 3.62 enrichment R; in that of B22, 0.548 enrichment R.

The values above are taken from paper PMC12136788.
